“And” between values parts separate entries of the source, which are not always exact repeats. Equal values may be shown once. The list shows a part of the results. The main result of the screen is listed elsewhere. These columns were measured beside it and carry no call. Most of these compounds were active or inconclusive in the main read-out, so they are no random draw.
Test: TAG lipid buildup reduction in H9c2 cells – cell-based, uHTS, fluorescence, primary screen (AID 651582)
Conditions: Nile Red lipid (TAG) fluorescence, measured here:, at 12.5 µM, cells loaded with 200 µM oleic acid

SMILES | DAPI nuclei signal change (viability), lower = more cytotoxic
C=CC[C@@H](CC(=O)N(CCO)Cc1ccccc1)C(=O)N[C@H](COC(=O)[C@@H](CC=C)Cc1ccc(F)cc1)C(C)(C)C | -13.4%
O=C(Nc1ccc(-c2csc(Nc3ccccc3)n2)cc1)c1cccc(C(F)(F)F)c1 | -6.49%
CCN(CC)CCNc1nc2cc(OC)c(OC)cc2c2nc(-c3ccccc3)nn12 | 39.5%
C[C@@H]1CN([C@H](C)CO)C(=O)c2c(c3ccccc3n2C)-c2ccccc2CO[C@H]1CN(C)Cc1ccc(Oc2ccccc2)cc1 | -24.3%
CCN(CC)CCNc1nc(-n2nc(C)cc2C)nc2sc3c(c12)CC(C)(C)OC3 | -16%
CC(OC(=O)c1ccc(S(C)(=O)=O)c([N+](=O)[O-])c1)C(=O)NC1C2CC3CC(C2)CC1C3 (stereo unspecified) | -47.2%
O=C(c1ccc(F)cc1F)N1CCCN(c2nc(-c3ccccc3)ns2)CC1 | -21.3%
CC(=O)O[C@H]1C[C@@]2(C)[C@@H](C[C@@H](O)[C@H]3[C@@]4(C)CC[C@@H](O)[C@@H](C)[C@@H]4CC[C@@]32C)/C1=C(\CCC=C(C)C)C(=O)O | -16.2%
COc1ccc(Cl)cc1-c1cc(C(=O)NCC2CCCCC2)[nH]n1 | 1.33%
COc1ccc(-c2cc(C(=O)Nc3cc(OC)cc(C(=O)Nc4cccc(C(F)(F)F)c4)c3)[nH]n2)cc1 | -18.3% and -37.8%
CN(Cc1ccc(Cl)cc1)C(=O)CCl | -23.8%
O=C(CCl)N=c1sccn1Cc1cccc2ccccc12 | 2.79%
CCC(=O)NC(c1ccc(Cl)cc1Cl)c1ccc2cccnc2c1O (stereo unspecified) | -46.7%
O=C(Nc1sc2c(c1-c1nc3ccccc3[nH]1)CCCC2)C1CCCC1 | 50.4%
O=C1Nc2ccc(Br)cc2/C1=N\N=C\C1=C(N2CCOCC2)C(=C/c2ccccc2)/CC1 | -2.58%
COc1cc(NC(=O)c2nccn2C)cc(C(=O)Nc2cccc(C(F)(F)F)c2)c1 | -41.1%
COc1cc(/C=C2/SC(=Nc3ccc(O)cc3)NC2=O)ccc1O | -31.1%
Cn1nnnc1N=N/C(=N/Nc1ccccc1)c1ccccc1 | -19.7%
COc1ccc2cc3cc(C(=O)NCCc4ccc(OC)c(OC)c4)oc3nc2c1 | 4.12%
N#Cc1cn(-c2ccccc2)nc1-c1ccc2c(c1)OCCO2 | -8.24%
CC1=C([N+](=O)[O-])C(c2ccccc2)C2=C(N1)c1ccccc1C2=O (stereo unspecified) | -29.8%
CCOC(=O)Nc1ccc2c(c1)C(=NNC(=S)NC)c1ccccc1-2 | -41.9%
CC(=O)c1ccc(-c2cnc3c(NC=O)cc(-c4ccc(C(=O)NC5CC5)cc4)cn23)cc1 | -32.7%

SMILES | DAPI nuclei signal change (viability), lower = more cytotoxic
CC(C)CCCCCCCCCCCCC(=O)NCC(=O)NC1C(O)C(O)C(Nc2ncnc3nc[nH]c23)OC1C(O)CO (stereo unspecified) | -45.8%
CC1(C)Cc2cccc(OCC(=O)Nc3ccc(OCC(N)=O)cc3)c2O1 | -39.4%
NC(N)=Nc1ccc(C=C2C=Cc3ccccc32)cc1 | -24.4%
CC(C)N=C(NS(=O)(=O)c1ccccc1)C(Cl)(Cl)Cl | -28.7%
CC(C)Oc1ccc(/C=N/NC(=O)C(CSCc2ccccc2)NC(=O)c2ccc([N+](=O)[O-])cc2)cc1 (stereo unspecified) | -30.8%
C=C(C)COc1ccc(-c2n[nH]c(C)c2-c2ccc(OC)c(OC)c2)c(O)c1 | -33.8%
Cc1ccc(NC(=S)N(CCCN2CCCC2)Cc2cccn2Cc2ccc(Cl)cc2)cc1Cl | -23.6%
CCO[C@@H]1OC(C(=O)N2CCN(Cc3ccccc3)CC2)=C[C@H](c2ccc(C(F)(F)F)cc2)[C@H]1CCCO | -0.993%
CCN(CC)CCn1c(SCC(=O)Nc2cccc(OC)c2)nc2c(sc3ccccc32)c1=O | -13.2%
CC(C)N(C(=O)[C@H]1C[C@H](CC(=O)NCc2cccc(C(F)(F)F)c2)C(=O)N2CCc3c([nH]c4ccc(Cl)cc34)[C@]12C)C(C)C | -16.5%
CC(=O)Nc1ccc(CNc2ncnc3ccc(-c4c(C)noc4C)cc23)cc1 | -6%
Cc1ccc(Nc2nc(N)nc(-c3oc4ccccc4c3C)n2)cc1 | -26.5%
C=CCn1c(N)c(C(=O)Nc2ccc(C)c(C)c2)c2nc3ccccc3nc21 | -8.07%
COc1ccc(N=Nc2ccc(O)c3ncccc23)cc1 | -42.2%
CCOC(=O)c1cc(-c2ccncc2)nc2c1c(C)nn2-c1ccccn1 | 3.74%
O=C(Nc1cccc(NC(=O)c2cccs2)c1)c1ccc([N+](=O)[O-])o1 | -32.1%
COc1ccc(-n2nc(C(=O)Nc3ccc(OC)c(OC)c3)c3c4ccccc4n(C)c3c2=O)cc1 | -36.2%
CC(C)(C)OC(=O)N1CCC(CC2CC(c3ccc(Cl)cc3)=NO2)(C(=O)NCC2CCCCC2)CC1 (stereo unspecified) | -46.5%
Cc1ccc(S(=O)(=O)NC(=O)Nc2ccc(N(C)C)cc2)cc1 | -21%
COc1ccc(C(=O)Nc2ccc(C(=O)Nc3cccc(C)c3)cc2)cc1 | -35.9%
Clc1cccc(Nc2nc(-c3ccncc3)nc3ccccc23)c1 | -20.3%
O=C(NC(=S)N(Cc1ccccc1)Cc1ccccc1)C1CCCCC1 | -24.8%
COc1cc(C#Cc2c(-c3cncn3C)n(C)c3ccc(-c4ccc5[nH]ccc5c4)cc23)cc(OC)c1 | -1.09%

SMILES | DAPI nuclei signal change (viability), lower = more cytotoxic
CCN(CC)c1ccc(-c2nn3c(-c4n[nH]c5c4CCC5)nnc3s2)cc1 | 9.74%
COc1cc(OC)c2c(-c3ccccc3)cc(=O)oc2c1C(CCN1CCCCC1)c1ccc(N(C)C)cc1 (stereo unspecified) | -38.9%
Cc1ccc(CC2(OCCN(C)C)CCC(C(C)(C)C)CC2)cc1 (stereo unspecified) | -28.5%
COc1cc2ccccc2cc1C(=O)Nc1sc2c(c1C(N)=O)CCN(C(C)C)C2 | 69.2%
C#CCN(C[C@@H]1[C@@H](OC(=O)NCC2CCCCC2)[C@@H](OC(=O)NCC2CCCCC2)CN(C(=O)OC(C)C)N1C(=O)OC(C)C)S(=O)(=O)c1ccc(C)cc1 | -16.1%
CCN1CCN(Cc2ccc(NC(=O)c3ccc(C)c(NC(=O)c4cc(-c5ccc(Br)cc5)n[nH]4)c3)cc2C(F)(F)F)CC1 | -5.41%
CCOC(=O)/C(=N\Nc1ccc(Cl)cc1)c1csc(Nc2ccccc2)n1 | -7.07%
Cc1ccsc1-c1nc(C(N)=O)c2[nH]c(=O)n(-c3ccc(Cl)cc3)c2n1 | -24.1%
CCOc1cc(N2CCOCC2)c(OCC)cc1NC(=O)CC12CC3CC(CC(C3)C1)C2 | -13.8%
CCOC(=O)c1c(CN2CCNCC2)nc2ccc(Cl)cc2c1-c1ccccc1 | -33.1%
CN(C)CCCn1c(SCC(=O)Nc2nc(-c3cccc(Br)c3)cs2)nc2ccccc2c1=O | -0.52%
CCOC(=O)c1cc(CC)sc1NC(=O)c1cc([N+](=O)[O-])ccc1N1CCOCC1 | -30.6%
O=C1CCCC2=C1C1(CCCC1)N=C(Nc1nc3cc(-c4ccccc4)ccc3o1)N2 | -16.9%
O=C(Nc1cccc(-c2csc(Nc3ccc(Cl)cc3)n2)c1)c1cccc(C(F)(F)F)c1 | -7.06%
COC(=O)[C@]1(CC(C)C)N[C@H](c2ccc(-c3ccc(F)cc3)cc2)[C@@H]2C(=O)N(C)C(=O)[C@@H]21 | 3.8%
COc1cc(CC(=O)OCC(=O)c2ccc3c(c2)OCCO3)cc(OC)c1OC | -31%
CCCCNc1c(-c2ccc(-c3ccc(C(C)=O)cc3)c(OC)c2)nc2cc(C)ccn12 | 41.5%
Nc1nc(CCl)nc(Nc2ccc3ccccc3c2)n1 | -41.8%
CC(C)(C)c1csc(NNC(=O)c2ccc(Br)cc2)n1 | -20.9%
CS(=O)(=O)c1sc(C#N)c2c1C(=O)CC(c1ccccc1)C2 (stereo unspecified) | -40.9%
CCCC1O[C@@H]2C[C@H]3[C@@H]4CCC5=CC(=O)C=C[C@]5(C)[C@H]4[C@@H](O)C[C@]3(C)[C@]2(C(=O)CO)O1 (stereo partly specified) | 23.5%
CCCCC(CC)C(=O)Nc1cc(C(=O)NCc2ccc(C)cc2)ccc1N1CCC2(CC1)CC(c1ccccc1)=NO2 (stereo unspecified) | -2.09%
Cc1cccc(NC(=O)CSc2cccc3cccnc23)c1 | -22.6%

SMILES | DAPI nuclei signal change (viability), lower = more cytotoxic
CCCCNC(=O)CSc1nc2ccc(Nc3nc(N4CCOCC4)nc(N4CCOCC4)n3)cc2s1 | -4.95%
CSc1nc(NCCN(C)C)c2sc3nc(-c4ccco4)c4c(c3c2n1)CCC4 | 24%
CCN(CC)c1ccc(/C=N/Nc2nc(C)cc(C)n2)cc1 | -21.6%
O=c1c2c(-c3ccccc3)csc2nc2c3ccccc3c(NCCN3CCOCC3)nn12 | 54.9%
CC(C)(C)c1csc(NC(=O)c2cccs2)n1 | -22.3%
c1cc2c(cc1Oc1nc(N3CCOCC3)nc(N3CCOCC3)n1)OCO2 | -11.2%
C=C(C(=O)c1ccccc1)C(C)C(=C)C(=O)c1ccccc1 | -43.7%
CN1CCN(c2ccc([N+](=O)[O-])cc2C(=O)c2ccc(Cl)cc2)CC1 | -36.7%
CCOC(=O)c1ccc(NC(=O)c2nc[nH]c2C(=O)NCCCCNC(=O)c2[nH]cnc2C(=O)Nc2ccc(C(=O)OCC)cc2)cc1 | 2.3%
CCOc1ccc(Cc2nnc(SCC(=O)Nc3ccccc3)n(N)c2=O)cc1 | 4.52%
CNC(=S)NN=C(C)c1ccc(OC)cc1O | -30%
Cc1cc2c(cc1C)CSC(c1ccccc1OC(=O)C(C)C)SC2 | 3.28%
CCOc1ccccc1NC(=O)Cn1nnc(C(=O)NCc2ccco2)c1N | -21.5%
COCCN1C(=O)c2ccccc2C(C(=O)Nc2ccc3c(c2)OCCO3)C1c1ccc(F)cc1 (stereo unspecified) | -8.98%
CC1(C(=O)NCc2ccccc2)Cc2c(-c3cccc(C(N)=O)c3)ccnc2O1 (stereo unspecified) | -41.8%
O=C1NC(Cc2ccc(O)cc2)c2nc3ccc(F)cc3c(=O)n2-c2cc3ccccc3cc21 (stereo unspecified) | -43.5%
COc1ccc(-n2c(C)cc(C(=O)CCl)c2C)cc1 | -42.8%
CC(=O)Nc1cc2cc(NS(=O)(=O)c3ccc(Cl)cc3)ccc2oc1=O | -48.2%
C[C@@H]1CN([C@@H](C)CO)C(=O)c2cc(N(C)C)ccc2O[C@@H]1CN(C)Cc1ccncc1 | -29.1%
CCCCCc1cc(=O)oc2c(C(CCN3CCCCC3)c3cc(OC)c(OC)c(OC)c3)c(OC)cc(OC)c12 (stereo unspecified) | -34.7%
COCCn1cnc2c(c1=O)c1nc3ccccc3nc1n2/N=C/c1ccc(OC)c(OC)c1 | -20%
CC(C)(C)C1CCC(CN2C(Nc3ccccc3)=NC[C@@H]2Cc2ccccc2)CC1 (stereo partly specified) | 6.99%
